Reference: the RNAGym collection of RNA variant scans (doi:10.1073/pnas.2313332121)
Variants at the floor of the assay are shown more often than the library holds them.

B1: TPR 5TU (parent)
chain: GGAUCUUCUCGAUCUAACAAAAAAGACAAAUCUGCCACAAAGCUUGAGAGCAUCUUCGGAUGCAGAGGCGGCAGCCUUCGGUGGCGCGAUAGCGCCAACGUUCUCAACUAUGACACGCAAAACGCGUGCUCCGUUGAAUGGAGUUUAUCAUG

Variants of: B1
Test: polymerase ribozyme fitness, log enrichment relative to wild type (log ratio); higher = more active; in vitro selection for triplet polymerase activity
Outline: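 Mutant libraries were PCR-built and transcribed for each subunit of a heterodimeric triplet polymerase ribozyme and selected for one round in triplicate at −7 °C, frozen, before gel excision of extended constructs and streptavidin-bead capture. Input and output libraries were Illumina-sequenced, keeping genotypes with ≥10 input reads and ≥1 read per output. Fitness is a logarithmic ratio of genotype to wild-type enrichment, in base 2, using inverse-variance-weighted replicate averages.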

| Variant | polymerase ribozyme fitness (log ratio) |
| --- | --- |
| A47C G50A C149U | ≤ -4.2 |
| U45A G70A C85U U144C | ≤ -4.2 |
| A47G C85G G100U | ≤ -4.2 |
| A47C C57G G58C | 0.275 |
| A47U G68A G83U C87U U130C G140A | ≤ -4.2 |
| G46A C85U A89G C96A A106C U145C U146G | ≤ -4.2 |
| G46U C131G | ≤ -4.2 |
| U45A U56G A66C G67C G71U C85G G88U A89G C99U A110G C132G | ≤ -4.2 |
| U45G A60G G86A A110C G141A A147G | ≤ -4.2 |
| U45A G80A G88A | ≤ -4.2 |
| A47C C96A | -0.697 |
| A47G G59A | 0.381 |
| G46A G68C G84A G133C | ≤ -4.2 |
| A47G C93A C96A U146A | ≤ -4.2 |
| A47G G65C G67C G83A C93U A119C A150U | ≤ -4.2 |
| G46C G88C C118G G126U | ≤ -4.2 |
| U45A G58A G83A U148C | ≤ -4.2 |
| G46C A60U G70A G94U G140U A150G | ≤ -4.2 |
| U45A U53A G80U C85G C105A A106C | ≤ -4.2 |
| G46C U53A G58A G94C C95U | ≤ -4.2 |
| U45G C116U | 0.00932 |

| Variant | polymerase ribozyme fitness (log ratio) |
| --- | --- |
| G46U G50C G83A | ≤ -4.2 |
| U45C C63G A66G C132G | ≤ -4.2 |
| G46A C96U | 0.0159 |
| A47C U78G U102G U127G C129A G136C | ≤ -4.2 |
| G46C C51G A52U U78G C93G | ≤ -4.2 |
| A47U G83C A107G C108G U151A | ≤ -4.2 |
| G46C C75G G84A C131A U144A | ≤ -4.2 |
| G46A A49C A91G | ≤ -4.2 |
| G46A C96A A107G | ≤ -4.2 |
| G46A G83A | -0.911 |
| G46C A60G A73C C87A | ≤ -4.2 |
| A47C A49C C72A C96U C105G A122U U134A | ≤ -4.2 |
| U45G A137C | -4.14 |
| A47C C54G C87U U102A C132G | ≤ -4.2 |
| A47U C93U A115U A121G G140U | ≤ -4.2 |
| A47C C72G | ≤ -4.2 |
| G46C G70A C95U G141A | ≤ -4.2 |
| G46C C51U U55A C57U C76A C87U C93A C129G | ≤ -4.2 |
| U45A G59C G94A G126U G140C | ≤ -4.2 |
| G46C G67A | ≤ -4.2 |
| G46A G50C A52C C69A | ≤ -4.2 |

| Variant | polymerase ribozyme fitness (log ratio) |
| --- | --- |
| A47C A91U C95U C129G | ≤ -4.2 |
| U45C G62C A91U U104A | ≤ -4.2 |
| A47U A60G A64G C75U G92U C114U C118G | ≤ -4.2 |
| A47U G84U U90A A115C U148A | ≤ -4.2 |
| A47C G48C A49C A52U G81A C96A C129A U148G | ≤ -4.2 |
| U45C G48C C54U C57A G88C C95A C105G A107U G124C | ≤ -4.2 |
| G46U A52G G92A C114U | ≤ -4.2 |
| G46C U55A C96A U104C A106C C114U U148C | ≤ -4.2 |
| G46A C57A G59U C63U A66C | ≤ -4.2 |
| G46A A52G C76G C87U U104G G126U | ≤ -4.2 |
| A47U U55A C87U | -2.17 |
| U45G C85G C93U | ≤ -4.2 |
| A47C C54A U56A C96G A115U C118A A138G | ≤ -4.2 |
| U45A G86A A97U G128U U146A A150C | ≤ -4.2 |
| A47G A64C G67C U77G C103G C116G U135A A137G U144C | ≤ -4.2 |
| G46U G50C U53A C85G C118U C129A | ≤ -4.2 |
| U45A G83A A122U G136C | ≤ -4.2 |
| U45A G46U G88U G92U A97C C118U | ≤ -4.2 |
| G46U G83A G143C | -4.16 |
| G46A G59U A73U G86C | ≤ -4.2 |
| U45A G88C C123A U148C | ≤ -4.2 |

| Variant | polymerase ribozyme fitness (log ratio) |
| --- | --- |
| G46U G59U U78G A147G | ≤ -4.2 |
| A47C A91C U146G U151A | ≤ -4.2 |
| A47C C51U U53A C54A G141U | -4.13 |
| A47U C85U C87G | ≤ -4.2 |
| U45G U109G | ≤ -4.2 |
| A47G U55A C116G | -0.139 |
| U45G A115C A142C | ≤ -4.2 |
| G46U G84U A97U U109G | ≤ -4.2 |
| A47C G50A U53G C69G U77A C85A C103G A113G G136C | ≤ -4.2 |
| A47C A49G G50A G81C G83A U102C C108A A119U G136A | ≤ -4.2 |
| U45A U56G A64C G65C C79U C93G | ≤ -4.2 |
| A47C U56A C57A C79G G88C A150G | ≤ -4.2 |
| A47C C76G G81A | ≤ -4.2 |
| A47C C54U C85G G94U A97C G143U | ≤ -4.2 |
| G46A G92A C99G A107G | ≤ -4.2 |
| U45C G84A | -1.08 |
| U45A G59A G83A C149A | ≤ -4.2 |
| A47C G83C C108U | ≤ -4.2 |
| A47C G58A A91U A97G C116U U135G G141U G152U | ≤ -4.2 |
| U45G C75A C85U C99G A115U | ≤ -4.2 |
| U45A G65A G83C C87G U144A U145G | ≤ -4.2 |
